Measured values published in PMC4336329 (PLoS ONE, 2015).
Screen size: about 310,000 compounds; about 14,000 (4.5%) showed an effect of 50% or more. The effect is printed as a negative number. The list shows a part of the results.

Biological target: human ether-à-go-go-related gene (hERG) potassium channel (human, UniProt Q12809)
Assay: primary screen, population patch clamp on CHO cells stably expressing hERG
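Further: peak tail current of the secondary pulse compared with the same well before compound.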

Sequence of human ether-à-go-go-related gene (hERG) potassium channel (Q12809 whole entry, looked up): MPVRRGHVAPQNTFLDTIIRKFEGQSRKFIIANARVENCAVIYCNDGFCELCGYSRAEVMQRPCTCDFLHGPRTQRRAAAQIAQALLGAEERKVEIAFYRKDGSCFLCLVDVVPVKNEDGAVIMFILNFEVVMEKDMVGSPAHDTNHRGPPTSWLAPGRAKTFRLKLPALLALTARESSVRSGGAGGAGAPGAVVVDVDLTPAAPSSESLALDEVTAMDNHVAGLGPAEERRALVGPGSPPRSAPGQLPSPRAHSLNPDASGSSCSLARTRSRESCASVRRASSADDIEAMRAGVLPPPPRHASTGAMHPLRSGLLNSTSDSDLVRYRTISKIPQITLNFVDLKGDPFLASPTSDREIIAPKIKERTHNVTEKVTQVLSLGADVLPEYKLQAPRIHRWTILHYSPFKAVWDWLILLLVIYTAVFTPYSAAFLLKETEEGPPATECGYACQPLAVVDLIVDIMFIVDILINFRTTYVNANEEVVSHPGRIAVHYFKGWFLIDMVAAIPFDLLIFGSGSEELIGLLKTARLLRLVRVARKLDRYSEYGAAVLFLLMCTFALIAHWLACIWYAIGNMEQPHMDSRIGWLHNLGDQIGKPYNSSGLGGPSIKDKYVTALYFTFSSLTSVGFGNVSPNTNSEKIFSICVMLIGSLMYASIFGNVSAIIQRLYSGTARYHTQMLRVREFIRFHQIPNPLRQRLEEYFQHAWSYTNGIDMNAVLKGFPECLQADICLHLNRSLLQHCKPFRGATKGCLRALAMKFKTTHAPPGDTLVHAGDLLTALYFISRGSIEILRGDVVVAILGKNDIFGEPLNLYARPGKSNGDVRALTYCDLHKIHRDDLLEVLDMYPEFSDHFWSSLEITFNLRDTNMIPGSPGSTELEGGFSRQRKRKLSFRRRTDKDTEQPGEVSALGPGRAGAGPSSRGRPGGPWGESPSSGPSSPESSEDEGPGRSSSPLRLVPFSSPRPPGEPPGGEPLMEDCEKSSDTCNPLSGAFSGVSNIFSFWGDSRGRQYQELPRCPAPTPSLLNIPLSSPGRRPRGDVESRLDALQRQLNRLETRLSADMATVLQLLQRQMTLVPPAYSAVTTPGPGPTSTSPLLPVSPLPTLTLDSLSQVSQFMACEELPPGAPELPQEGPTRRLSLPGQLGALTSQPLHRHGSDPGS

Compound | hERG current change (%, negative = inhibition) at 10uM
CCCn1nc(NC(=O)c2cccs2)c2cc3ccccc3nc21 | -25.8%
Cc1ccc(Sc2c([N+](=O)[O-])ncn2C)cc1 | 3.39%
O=C(OCc1nnc(-c2ccccc2)o1)c1ccc(Br)o1 | 8.29%
CC(NC(=O)NC1CCCCC1)C(c1cccs1)N1CCOCC1 (centres unmarked) | 12.3%
CC(C)c1cc(C(F)(F)F)n2nc(C(=O)Nc3ccc(-n4cnnn4)cc3)cc2n1 | 14.2%
O=C(CC1(O)C(=O)Nc2cc(Cl)cc(Cl)c21)c1ccccc1O (centres unmarked) | 6.92%
Cc1nc(Cl)c2oc3ccccc3c2n1 | 9.28%
CCCCN(CC)C(=O)Cc1c(C(=O)O)[nH]c2ccc(Cl)cc12 | 12.4%
CCOC(=O)CCCNC(=O)COC(=O)/C=C/c1ccc2c(c1)OCO2 | -2.45%
CCOc1ccc(N2C(=O)/C(=C/c3cccs3)N(C)C2=S)cc1 | 15.3%
Cc1ccc(S(=O)(=O)N2CCCCC2)cc1NC(=O)Cn1ccsc1=N.Cl | -33.7%
COc1ccc(CCNC(=S)c2ccccc2)cc1OC | 1.76%
COc1ccc(S(=O)(=O)N2CCN(c3ccc(F)cc3)CC2)cc1C(=O)N1CCCC1 | -10.9%
Cc1ccc(S(=O)(=O)N(OCc2ccccc2)C(C)C(=O)O)cc1 (centres unmarked) | 12.4%
CC1CCN(c2ccc(C(F)(F)F)cc2N)CC1 | -0.321%
O=C1C(Cl)=C(NCC2CCCO2)C(=O)N1Cc1ccccc1 (centres unmarked) | -5.45%
CCOc1ccccc1NC(=S)NNS(=O)(=O)c1c(C)cc(C)cc1C | 20.6%
COC(=O)c1cccc(-n2cnnn2)c1 | 10.7%
O=C(CSc1nnnn1-c1ccccc1)c1cc2ccccc2oc1=O | 8.25%
Cc1n[nH]c(=S)n(/N=C/c2ccccn2)c1=O | 23.3%
CNc1snc(C)c1C(=O)OCC(=O)c1cc(F)ccc1OC | -22.4%
Cl.O=C(COc1ccccc1CNCc1ccccc1)Nc1ccccc1 | -34.8%
CCOC(=O)Cc1ncccc1C(=O)Nc1ccc(OC(F)(F)F)cc1 | 2.6%

Compound | hERG current change (%, negative = inhibition) at 10uM
COc1ccc(OC)c(C2C(C(=O)c3cc4ccccc4o3)=C(O)C(=O)N2c2cc(C)on2)c1 (centres unmarked) | 2.7%
CC(N)Cc1c[nH]c2ccc(OCc3cccs3)cc12.Cl (centres unmarked) | -43.1%
COc1ccc(C(CNC(=O)c2cc(S(=O)(=O)NCc3ccccc3)ccc2C)N2CCOCC2)cc1 (centres unmarked) | -19%
CC(OC(=O)c1cn(C)c2ccccc12)C(=O)N1CCCC1 (centres unmarked) | 16.4%
CC(C)NC(=S)N1CCn2c(nc3ccccc32)C1 | 15%
COC(=O)c1ccc2c(c1)C(=O)/C(=C/c1ccc(C)cc1)O2 | -4.95%
COc1ccc(N2CCN(C(=S)NC(C)c3ccccc3)CC2)cc1 (centres unmarked) | 5.25%
COCc1cc(Sc2ccc(Cl)cc2)nc(-c2ccccc2)n1 | -6.47%
Cc1cc(C(=O)Nc2ccccc2N2CCOCC2)ccc1[N+](=O)[O-] | -0.267%
CC(=O)c1sc(N)nc1C | 15.4%
Cc1cc(OCCCC(=O)Nc2cccc(-n3cnnn3)c2)ccc1Cl | 3.45%
CC(C)CCC(C(=O)O)C(C)CC(=O)NNC(=O)c1ccco1 (centres unmarked) | 7.82%
Cc1ccc(C)c(Nc2cc(C)nc3ncnn23)c1 | 5.63%
CCOC(=O)Cn1c(-c2cccnc2)nc(-c2ccccc2)c1-c1ccccc1 | 0.903%
COc1cc(C=O)ccc1OC(=O)Nc1ccccc1 | 5.93%
COc1ccc(C2CC(c3cccc(OC)c3)n3nc(N)nc3N2)cc1 (centres unmarked) | -12.8%
O=C(NCc1ccccn1)c1cccc(S(=O)(=O)N2CCCCC2)c1 | -35.3%
O=C(Nc1cccc(C(=O)O)c1)/C(=C\c1ccco1)NC(=O)c1ccc(Br)o1 | -28.1%
CCOC(=O)c1c(C)[nH]c(C)c1S(=O)(=O)N(C)CC(=O)NCc1ccc(C)cc1 | -6.66%
COc1ccc(NC(=O)C2CCCN2S(=O)(=O)c2ccc(Cl)cc2)cc1 (centres unmarked) | 3.26%
Cl.Cn1c(=N)n(CC(O)c2ccco2)c2ccccc21 (centres unmarked) | -9.79%
CCC(C)(C)NC(=O)CN(Cc1cccs1)C(=O)CNS(=O)(=O)c1ccc(C)cc1 | -5.08%
CC(=O)Nc1ccc(S(=O)(=O)NC2(C(F)(F)F)N=C(c3ccccc3)NC2=O)cc1 (centres unmarked) | 16.6%

Compound | hERG current change (%, negative = inhibition) at 10uM
O=C(c1ccc2c(c1)OCCO2)N(c1ccccn1)C1CCCCC1 | 2.06%
O=C(Nc1ccncc1)c1cn(-c2ccccc2)nc1-c1cccs1 | 9.81%
Cl.O=S(=O)(c1ccc(OCC(O)CNCc2ccco2)c(Cl)c1)N1CCOCC1 (centres unmarked) | -22.6%
CCn1c(C)cc(=S)c2ccccc21 | -7.86%
N#CC1(c2ccccc2)CCC(=NO)CC1 (centres unmarked) | 11.2%
N#CC(Cc1cccc(CC(C#N)(c2ccccc2)c2ccccc2)c1)(c1ccccc1)c1ccccc1 | 18.7%
CCN(CC)CCn1c(C)nc2ccccc21.Cl | -9.07%
O=C(COc1ccc(Cl)cc1)NCCSc1ccccc1 | -18%
COC(=O)c1sccc1NC(=O)CSc1nnnn1-c1ccccc1F | 5.57%
Cc1cc(=O)oc2cc(OCC(=O)N3CC[C@@]4(O)CCCC[C@H]4C3)c(Cl)cc12 | 0.0429%
NC(=O)c1ccccc1OCC(=O)c1ccc(Cl)cc1 | 26.5%
COc1ccccc1N1CCN(CCN2C(=O)CC(=C3c4ccccc4-c4ccccc43)C2=O)CC1.Cl | 0.408%
COc1ccccc1C1/C(=C(/O)c2ccc(C)cc2)C(=O)C(=O)N1CC(C)O (centres unmarked) | 13.1%
CC(C)CC(=O)N1CCN(CC2CC=CCC2)CC1.O=C(O)C(=O)O (centres unmarked) | 10.6%
CCCNC(=O)c1c(Cl)cnn1-c1ccc(C)cc1 | 5.65%
O=C(CCC(=O)Nc1ccc(F)cc1)N/N=C/c1ccccc1O | -1.27%
O=C(c1ccco1)N1CCN(c2cc(=O)n(-c3ccc(Cl)cc3)c(=O)[nH]2)CC1 | -4.63%
CCCNC(=O)c1ccc2c(=O)c(O)c(-c3ccsc3)[nH]c2c1 | -3.69%
CCn1c(SCC(=O)N2CCCCCC2)nc2c(c1=O)SCC2 | -5.09%
Cc1ccc(OC(=O)C2CSC3(C)CCC(=O)N23)c(Br)c1 (centres unmarked) | -17.4%
Cc1ccc(C(=O)OC(C)C(=O)NCc2ccc3c(c2)OCO3)cc1S(=O)(=O)N1CCOCC1 (centres unmarked) | 10.7%
CC(OC(=O)c1ccc(Cl)c([N+](=O)[O-])c1)C(=O)N1CCN(Cc2ccccc2)CC1 (centres unmarked) | -71.1%
CC(NC(=O)c1ccccc1)C(=O)OCn1nnc2ccccc2c1=O (centres unmarked) | -2.94%

Compound | hERG current change (%, negative = inhibition) at 10uM
COc1cccc(CNC(=O)CCC2CCCN(c3cc(C)nc(N)n3)C2)c1 (centres unmarked) | -63.5%
COc1ccc(CCNC(=O)c2cc3c(=O)n4ccccc4nc3n(CCN3CCOCC3)c2=N)cc1 | -77.8%
COc1ccc(OC)c(Cc2nnc(CCC(=O)N3CCCCC3c3nccs3)o2)c1 (centres unmarked) | -8.55%
COc1ccc(N2C(=O)CC(N3CC=C(c4ccccc4)CC3)C2=O)cc1 (centres unmarked) | -12.5%
CC1(O)CC(c2ccc(Cl)cc2)=NN1C(=O)c1ccc(Cl)cc1 (centres unmarked) | 7.39%
Cc1ccc2cn[nH]c2c1NC(N)=S | 6.25%
CC(=O)Nc1cccc(C(=O)OCC(=O)NCc2cc(C)c(O)c(C)c2)c1 | -34.2%
COc1ccc(NC(=O)c2ccccc2[N+](=O)[O-])cc1 | 9.48%
CSc1ccc(CN2CCSCC2)cc1 | 2.79%
C=CCN1C(=O)C(O)(CC(=O)c2ccccn2)c2ccccc21 (centres unmarked) | 4.61%
O=C(CCSCCc1ccccn1)Nc1ccc(Cc2ccncc2)cc1 | -27.8%
CN(CC(=O)Nc1c(Cl)cccc1Cl)C(=O)C1CCN(C(=O)Nc2ccccc2)CC1 | 11.5%
CC(C)(C)c1ccc2c(c1)OC(C(=O)N/N=C\c1ccccn1)CO2 (centres unmarked) | -31%
Cc1cc(NC(=O)CSc2nnc(Cn3c(=O)sc4ccccc43)n2-c2ccccc2C)no1 | 2.54%
COc1ccc(-c2cc(C(=O)N3CCN(c4ccccc4O)CC3)c3ccccc3n2)cc1 | 8.88%
O=C(c1ccco1)c1cn(Cc2ccc(Cl)cc2)c2ccccc12 | 15.9%
CN(CC(=O)Nc1cccc(S(=O)(=O)NC2=NCCC2)c1)Cc1ccccc1Cl | -5.24%
CCOC(=O)COc1cccc2c(=O)n(CC(=O)NCc3ccccc3)ccc12 | 4.26%
CCOC(=O)C1=C(C)NC(=O)CC1c1cc(OC)c(OC)cc1Br (centres unmarked) | 4.37%
COc1ccc(/C=C/C(=O)OCc2csc(-c3ccccc3)n2)cc1OC | 17.4%
